# Experimental data taken from the supplement of paper PMC11417369.
# The list shows a part of the results.
# Test system: PF3D7_0420300 AP2 domain 1 (GST-tagged)
# Assay: gcPBM binding intensity (ln(normalized median fluorescence intensity)); higher = stronger DNA binding
# How it was run: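 After 1 h on an Agilent 4 × 180k array of primer-extended double-stranded 36-bp intergenic genomic probes and negative controls, bound GST-tagged P. falciparum DNA-binding domains were detected with Alexa488 anti-GST antibody and scanned at 488 nm. The domains had been expressed in E. coli, and binding took place in 1× PBS with 1% milk, 0.2 mg/ml BSA, 0.5% salmon testes DNA and 0.03% Triton X-100. Binding intensity is the highest Masliner-normalised natural-log median intensity across replicate spots of either probe orientation.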
row,Sequence,gcPBM binding intensity (ln)
1,AAAAAAAAAAAAATTACACACATACAGATAATAATA [CACACA_site5244],9.92
2,TTTTCATTCCACAACGCACACCCATTTAAAAAAAAA [CACACA_site1377],9.26
3,CTATTATAAAAATGATGTACACTTATATATACATAT [XGTACX_site6087],9.27
4,TTTTTTTTTTGAATATGTACTTAAAAAAATTTTTTT [XGTACX_site3851],8.84
5,AATCAAATATTTAAATGTACTCAAGAAGGCTTAATC [XGTACX_site6907],9.23
6,AAAAAATATTTTAGTGGTACATTTGTAGCTCTCAAA [XGTACX_site4859],9.08
7,ATAACATGAACATATGTTACACAAACATACATACAT [XGTACX_negctrl_site365],9.38
8,TATGAAGACACAAATACACACACTCAAAAAAAAAAA [CACACA_site2660],9.67
9,AAAAATATAATATAATGTACACAAAAAAAAAAAATC [XGTACX_site1427],9.71
10,GAAAAAAAAAAAAAAAAACACACGGTACATTCAAAG [CACACA_site303],9.53
11,TTTTTTTTACATGAACGTACATAATATATTTTATAA [XGTACX_site5249],9.05
12,TGGTGTTTTTTTTAATGTACTTATAAAATAATACAT [XGTACX_site6574],9.24
13,ATGTAAAAATAAAGATGTACATGTATATATATATAT [XGTACX_site5193],9.43
14,AATATATATTCATGTGTACACACAAAAAAAAATAAA [CACACA_site8690],9.76
15,CCTATAATTAGGGGTAGTACACAAAAAAAAAAAAAA [XGTACX_site6396],8.94
16,TTAAAAAAGAATTGTGCACACACAAAAAATGTTCAT [CACACA_site1102],9.41
17,AATTCCTTATACAATTGTACATAAAAAGAATAAAAA [XGTACX_site1343],9.05
18,ATCAAACAAAAAATAAAAAAATGCGACATGTGTACA [TGCATGCA_negctrl_site164],9.61
19,TATAAAATTTAAATTATACACACTTAAGTAACATCA [CACACA_site531],9.34
20,TTAATATTTTTAATTTGTACATATAATTAAATCTCT [XGTACX_site1736],8.95
21,GAAAATTATGTATATTGTACAAATATTATATTAAAT [XGTACX_site2467],9.19
22,TTGAATACATATATATGTACATATTCTATGGTTAGA [XGTACX_site4088],9.05

row,Sequence,gcPBM binding intensity (ln)
1,CAAGGACAATTTACAAACATAATATATGTATATATA [TGCATGCA_negctrl_site5],9.14
2,CTGAGGAAGCTAATTACACACATGCATATTTTTTTT [CACACA_site2177],9.6
3,ATTATCTTCAAGTATGTACACACTATATATAATAAA [CACACA_site2441],9.35
4,ATAAATTTACTTGATTGTACATTTCTTAGTTGTATT [XGTACX_site3057],9.46
5,TATACTGATAAAAAAAGTACTAGAGTTTGTAAAAAT [XGTACX_site3934],9.27
6,CACAAGAAAGTTCACACACACACATATATATATATA [CACACA_site6009],9.95
7,TTATATGTCAATTTGCGTACATACATAATTACATAT [XGTACX_site1546],9.24
8,AATTTTAATTTTTTGACACACATATAATATATATAT [CACACA_site3978],9.37
9,TATGGGTATGTATTCACACATAACAAAAATATCAAA [CACACA_site5059],9.22
10,ATATATATATATAACACACGCAAAAAAATTAAATAA [CACACA_site1400],9.69
11,TTTTATATATTCAATTGTACATGTATTTTTTTTTTT [XGTACX_site3584],9.37
12,CAAAGACACAAACACACACACACATACATACATACA [CACACA_site453],10.1
13,TTTATTTTTAAAGGCACACACATTTTTATTTTTAAA [CACACA_site2021],9.32
14,TTCTTTTTTTTCAGTTGTACTTATAAGAAAGAAAAA [XGTACX_site4028],8.7
15,TTTATTTATAGAATTACACACATATATACACAAATG [CACACA_site7338],9.56
16,TTATTATAAATAGGTAGTACATTTTGAACAAATATT [XGTACX_site8866],9.21
17,ATATATATAACAAAAGTGCATTAAGGGGATGCTATA,9.43
18,AATATAAATATAGGAAATGTAGTTAAAAGGTGTATG [CACACA_negctrl_site1233],9.5
19,ATACGACAAATATAAAGTACAAGCTTGGTTTTTATA [XGTACX_site8103],9.41
20,AATTATGGGGAAAAGACACACATATATATATATATA [CACACA_site2589],9.2
21,TATGCAAGGAACCACACACACACACGGAAATGTATA [CACACA_site6490],10.2
22,ATTCTATAGAAACACACACACATGCATGCACCTATA [CACACA_site107],9.96

row,Sequence,gcPBM binding intensity (ln)
1,TTATATATATATGTATGTACTTATAACTTTTATTAG [XGTACX_site3190],9.26
2,ATAAGGTTACAACAAACACACAAAGGAATATACGCA [CACACA_site4090],10
3,AAGAAGAATAGGCGTTGTACGGAATGTAGTAGAGTT [XGTACX_site2430],9.59
4,TTAATATAAATATGATTTTTGATTCCTATACTATTT [CACACA_negctrl_site752],9.19
5,TTGTATTCATATGGTTGTACATATTAAAAGTTCTAA [XGTACX_site7255],9.05
6,ATAAAATGATGTATCTGTGTATGTTTATTTTGTTTT [XGTACX_negctrl_site367],9.66
7,ATTATATACAAATAAAGTACATAAACAAATTCAGAA [XGTACX_site1187],9.64
8,TATTTCAAACTGTTCTCACACACGAAATTAGAAATG [CACACA_site611],9.26
9,TTTTGAATATGGATCTTATATATATTAAATAAATAA [CACACA_negctrl_site344],8.77
10,ATTCCAGAAATATATTAACAAGGAAAATATAAAAAT [CACACA_negctrl_site343],9.28
11,TTGAGCCTACAAAAGGGTACACATTCAATTTATTTT [XGTACX_site6570],9.12
12,ATATTTTGTTATGAAACACACACATATATATATATA [CACACA_site9216],9.64
13,AAAAAAAAAAGAAATTGTACTTTTTGTTTAATAATT [XGTACX_site4681],8.9
14,TACTAAGAAGTATTTACACACCAACAAGGCGAAAAA [CACACA_site2944],9.45
15,ATATGTATAAAAATCCGTACATAAGTGTGCGTATAT [XGTACX_site4376],9.32
16,ATGTTTGAGCCTAAGGTGCATATAAAAATATATGTG [GTGCAC_site9690],9.07
17,ATAAATAATATGTAAACACACAAAAAATAAAAATGA [CACACA_site1178],9.72
18,ATATATATTATATATGCATGCCAAATCTTTATAAAC [TGCATGCA_site1042],9.18
19,ACATATATATATATATATATATATATATATAGATAG [CACACA_negctrl_site783],9.17
20,AAAACTAAATGTTATTCGCACACGGAATTTATTTAA [CACACA_site9221],9.19
21,CTTTTTACTTAATACACACACACACTAAAAAAAAAA [CACACA_site6574],9.94
22,ACAAAAAAATATTTATGTACTTATTATATTTATAAT [XGTACX_site2059],9.11

row,Sequence,gcPBM binding intensity (ln)
1,ATAAAGAAATTACACACATGCAATGAAAAAAAAAAA [TGCATGCA_site406],9.62
2,AATAAAATAAAAAAAAATAAAAAAAAAATAAAAAAT [XGTACX_negctrl_site245],9.71
3,TATATATATATTTAATGTACATGTTTATTTTATCAT [XGTACX_site499],9.23
4,TATTTTTCTTTTTAAGTGCATGGTTGTATAAAATTT [GTGCAC_site9480],9.23
5,TTTATAAAGGGAAAGGTGCAAAAGGTGAAAGTTTTA,9.38
6,TCTTTTTTGAAGCATTTTGTTTTTTAATAAGTAAAA [TGCATGCA_negctrl_site247],8.85
7,GAGTTTATATTTTAAGCATGCATATGTTATTATTAT [TGCATGCA_site1049],9.46
8,TATATCAAAAACGAGACATGCATGCCGTTCATTTTG [TGCATGCA_site211],9.12
9,TATATAAGAATATATACACACATATCTGTATTTATA [CACACA_site5231],9.37
10,AAAAAAACAGAAAACACACAAATTATCTTATAATTA [CACACA_site6282],9.45
11,TTATTAACGGAACTCTGTACTTAAAAAATTTTAGAA [XGTACX_site8787],8.97
12,ATTGTTTCATTAAAATGTACATAAATTGTGTATAAT [XGTACX_site5341],9.2
13,TAAAGCAACTGAAACACACAAATTTTTTTTTTTTTT [CACACA_site7499],9.4
14,AAACTGAAAAAAATATGTACATATTTATATCTTATA [XGTACX_site3011],9.09
15,ATTGTATAAAAATGTACATGCAATAAATTTAGTTCT [TGCATGCA_site675],9.18
16,AAAAAAAAAAAACACACACACAAATACAAATACATA [CACACA_site415],10.2
17,TAGTATAATATATATTGTACGTTTTAATTGTTTATA [XGTACX_site2731],9.18
18,GAAACGTTTTTTCAGTGTACATTTTACCGATTTGTA [XGTACX_site8249],9.35
19,ATATAATGAAGTGAATGTACATATAAAATGTAAAAA [XGTACX_site8052],9.46
20,TCAAAATATCCAAAAGAATAAAGAAAAAAAAAAAGA [CACACA_negctrl_site1377],9.25
21,TTTTTATAAATAATAAGGCGTATGAAAATAAAATAA [TGCATGCA_negctrl_site421],9.12
22,TCAAATTTAATCATAACACACATTCACATATGAATT [CACACA_site3199],9.16
